# Over roughly 33,000 sequences, “E-score (-0.5 to 0.5)” has its median near -0.053; the highest 2% begin near 0.37. The list shows a part of the results.
# Biological target: Hap1 (UniProt P0CE41)
# Assay: PBM E-score (8-mer binding enrichment) (E-score (-0.5 to 0.5)); higher = stronger / more preferred TF binding; most listed sequences are background and not binding sites
# Settings: protein concentration: 200 nM; construct: GST-DNA-binding domain
# Procedure, shortened: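 Universal all-10-mer Agilent arrays, double-stranded by primer extension on fresh or once-stripped slides, were probed with about 100-200 nM GST-tagged yeast transcription factors made by PURExpress. Fluorescent anti-GST detected bound protein, and masliner normalised the scans. E-scores from the Universal PBM Analysis Suite were given to each ungapped eight-base word pooled with its reverse complement.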
# Sequence of UniProt P0CE41 (P0CE41 whole entry): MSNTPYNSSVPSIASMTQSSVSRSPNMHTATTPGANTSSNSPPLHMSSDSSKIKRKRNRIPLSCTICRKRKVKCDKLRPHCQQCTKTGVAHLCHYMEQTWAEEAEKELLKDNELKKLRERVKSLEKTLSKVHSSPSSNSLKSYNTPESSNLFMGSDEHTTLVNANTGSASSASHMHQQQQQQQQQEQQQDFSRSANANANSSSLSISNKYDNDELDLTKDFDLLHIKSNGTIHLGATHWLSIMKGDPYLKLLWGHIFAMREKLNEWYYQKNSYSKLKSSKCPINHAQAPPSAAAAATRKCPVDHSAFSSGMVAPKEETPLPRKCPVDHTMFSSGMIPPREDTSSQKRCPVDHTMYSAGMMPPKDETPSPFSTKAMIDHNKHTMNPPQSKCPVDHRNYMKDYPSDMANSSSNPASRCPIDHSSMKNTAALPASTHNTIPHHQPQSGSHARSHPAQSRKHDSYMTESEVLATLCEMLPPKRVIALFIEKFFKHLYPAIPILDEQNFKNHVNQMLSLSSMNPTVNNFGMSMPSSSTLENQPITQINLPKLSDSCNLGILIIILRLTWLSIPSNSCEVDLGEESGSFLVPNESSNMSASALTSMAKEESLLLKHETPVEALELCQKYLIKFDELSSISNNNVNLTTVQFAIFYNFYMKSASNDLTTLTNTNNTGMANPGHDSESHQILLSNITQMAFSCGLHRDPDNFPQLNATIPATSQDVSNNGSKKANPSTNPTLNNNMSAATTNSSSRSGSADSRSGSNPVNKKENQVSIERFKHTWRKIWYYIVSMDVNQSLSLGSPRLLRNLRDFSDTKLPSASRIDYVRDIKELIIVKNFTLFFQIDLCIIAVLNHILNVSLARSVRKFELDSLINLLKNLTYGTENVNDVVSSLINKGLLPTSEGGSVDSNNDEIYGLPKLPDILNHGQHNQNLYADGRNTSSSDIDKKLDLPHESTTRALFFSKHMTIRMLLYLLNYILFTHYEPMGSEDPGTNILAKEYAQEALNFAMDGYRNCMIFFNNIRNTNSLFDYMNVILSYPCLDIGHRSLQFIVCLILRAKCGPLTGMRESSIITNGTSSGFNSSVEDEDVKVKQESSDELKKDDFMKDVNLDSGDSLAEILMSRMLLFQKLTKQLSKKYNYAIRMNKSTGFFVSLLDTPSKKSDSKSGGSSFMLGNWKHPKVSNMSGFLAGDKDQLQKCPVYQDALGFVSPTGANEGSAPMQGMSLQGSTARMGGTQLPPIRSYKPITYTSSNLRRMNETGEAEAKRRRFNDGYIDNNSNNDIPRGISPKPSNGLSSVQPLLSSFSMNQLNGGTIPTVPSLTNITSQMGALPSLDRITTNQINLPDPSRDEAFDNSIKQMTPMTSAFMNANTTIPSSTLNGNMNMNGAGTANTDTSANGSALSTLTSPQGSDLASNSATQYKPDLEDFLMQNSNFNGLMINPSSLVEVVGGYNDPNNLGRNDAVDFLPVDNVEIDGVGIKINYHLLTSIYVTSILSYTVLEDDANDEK
row,Sequence,PBM E-score
1,CGATCAAG,0.0595
2,GACTAGGA,-0.104
3,CTGGCCTA,-0.168
4,GAGCAACA,-0.0395
5,AGTTCTTC,-0.111
6,ACTACACG,-0.185
7,ATCTTTTG,-0.072
8,CGCTTCAA,0.0807
9,CCTTTCGA,0.00181
10,GCGCTTTA,0.133
11,GAAAGGCC,0.22
12,GGGAACCA,-0.215
13,CTGGTACA,-0.27
14,GGGGACTA,-0.0608
15,CAAAACAG,-0.175
16,GATTCCCC,0.0251
17,AACTGTTG,-0.252
18,GAAGTCGA,-0.0469
19,ATGGTTTG,0.0601
20,ATAGCAGA,-0.21
21,AAGCCGCA,0.116
22,AGCCAAGC,-0.173
23,GCTCTCAA,-0.196
24,TGCTCCCA,-0.192
25,GGGTGCCA,-0.0389

row,Sequence,PBM E-score
1,CTAGGTCC,0.22
2,AGCCACCG,0.179
3,GCGACAGA,0.038
4,GAACACCC,0.0895
5,AGGTAAAA,-0.117
6,TTGTACAA,-0.27
7,AATCTTTG,-0.203
8,GCAGCTGA,-0.0954
9,CTACAAAA,0.0116
10,AGTAAAGA,0.0858
11,AATTTATC,0.255
12,ACCTGGAC,-0.164
13,CTAGATAC,0.102
14,AATCGGAG,0.359
15,CAAGACAA,-0.0427
16,AAAACTAT,0.0628
17,CCTAGGCA,-0.136
18,ACGTTAGC,-0.0972
19,ATGTACTG,-0.148
20,CAGTAAAC,0.00777
21,ACGGCTCC,0.212
22,CTCAGGTA,-0.283
23,ATTAATAC,0.0497
24,GAGGCCTC,-0.0587
25,ACAACGAC,-0.0123

row,Sequence,PBM E-score
1,CGGTACCA,0.213
2,CTTTACGA,-0.162
3,ATATTAAA,0.1
4,AAAAAGGA,-0.0699
5,TGTTAAAA,-0.143
6,CCTGAAGC,-0.298
7,ACGCAGGC,-0.051
8,AAGTCCTG,-0.0784
9,TAAGGTGA,-0.054
10,CGAAGTAG,0.128
11,CTCGTAAG,-0.0457
12,GCATGTAC,-0.0721
13,GGTGAGCA,-0.228
14,CATAGCAA,-0.302
15,GCGGTGGA,0.0678
16,AGGCGGAT,0.188
17,CCTTACTC,0.17
18,ATTGCGAC,0.0472
19,CACTTCTC,-0.0463
20,CTCCCGAG,0.00876
21,CGGCTGAG,0.157
22,CGAGTGCA,0.133
23,AGCTTATC,0.184
24,CGTAATGC,0.0976
25,TCAAGAAA,0.0349

row,Sequence,PBM E-score
1,AATACCTA,-0.2
2,AGAAGCAT,-0.159
3,ATGCTACC,0.14
4,AAAGCGAT,0.172
5,CGCTACAG,-0.165
6,ATTCGATA,0.0211
7,CAAGACGC,0.109
8,GGAAAAAA,0.179
9,CACCAAGG,-0.0753
10,GAGAAAAA,0.203
11,TCCGGTAA,0.442
12,GCCGCAAA,0.259
13,TATTAGAA,-0.0615
14,ACCCTAAA,0.0981
15,AGGAAAAA,-0.185
16,CCCATGGG,0.165
17,GCAGGTAC,-0.0844
18,ACCATGGG,-0.147
19,GTATACTA,-0.144
20,ACCCACAG,-0.33
21,CGCGAATA,0.182
22,CAGAAATC,-0.0902
23,CAGACGTC,-0.175
24,CCGTGAAC,0.18
25,CGATTTTA,0.125

row,Sequence,PBM E-score
1,CAGCGGGA,0.117
2,AGAAAATC,-0.0625
3,AGATCGAT,-0.157
4,ACGATTTC,0.0291
5,ACACACCG,0.133
6,ATCAAGTC,-0.111
7,AGTCTCTG,-0.216
8,ATATCGAA,0.111
9,AAGAAAAC,0.0164
10,ATACGGAC,0.333
11,ACGATCTC,-0.00674
12,AAGGTTCT,-0.0171
13,CTATGTCC,0.274
14,CCTGGTTC,-0.00675
15,CGTTTAGA,0.0623
16,GAGCGCCA,-0.0926
17,GTAGCAAC,-0.102
18,CACGTTGG,-0.224
19,ACGGCGCG,0.193
20,ATAGCCGC,0.232
21,CGTCGACC,-0.113
22,ACTCCATA,-0.151
23,CACCGCAG,0.0498
24,AACAGGCA,-0.249
25,GTCACCCA,-0.158

row,Sequence,PBM E-score
1,CTTACACA,-0.297
2,GTCCACAC,0.0984
3,GATATATC,0.373
4,ACTGAGTA,-0.296
5,CTGGAATA,-0.0682
6,AAGACCAG,-0.0334
7,AACTACGC,0.124
8,ATTCTTGC,-0.0173
9,GCTCGGAC,0.403
10,CGTCTGCC,0.088
11,GCCGGAAC,0.371
12,ACATTTCA,-0.0859
13,ATAGTTCA,-0.0608
14,AATCCCGA,0.409
15,ATAATGCA,-0.132
16,ACACCCGG,0.326
17,AGTTGCAT,-0.0273
18,ACAGCAAA,-0.151
19,CGTGGAAA,0.0814
20,CGCAGCAC,-0.044
21,AGAGCATA,-0.104
22,AATATGGG,-0.307
23,CTTGCTCA,-0.129
24,ACATACAT,-0.112
25,CTGCCAAA,-0.0844

row,Sequence,PBM E-score
1,CGATTCTA,-0.0641
2,AAAAGTCC,0.249
3,AAGAAGGT,0.04
4,AGTCCACT,-0.297
5,CTACCGCC,0.209
6,AAGTCATC,-0.175
7,AGAAGGCC,-0.00229
8,AAGAACGG,0.144
9,AGACCAAG,0.0409
10,GAATGCAA,0.0554
11,ACCGGTAC,0.334
12,CGATAAGC,0.363
13,TGGAGGAA,-0.217
14,AGATAGGG,-0.111
15,ATGCGAAT,-0.0362
16,AATAATGA,-0.0797
17,GAAAATGA,-0.0489
18,CCTTAGCC,-0.0106
19,TCTAAAGA,-0.116
20,AACCTTAT,-0.17
21,ACTCCGGA,0.461
22,CCAGTCAA,-0.238
23,AACGGATA,0.398
24,ACGGGCAC,-0.105
25,CGCGAGGC,0.113

row,Sequence,PBM E-score
1,AATAGATC,0.043
2,AGAGCAAG,-0.0583
3,ACACGAGT,-0.0922
4,GCGGTATA,0.0943
5,CGTCCATA,0.0108
6,GGCCACCA,-0.0725
7,CGGAATTA,0.481
8,ACCTGATA,-0.172
9,CCCGTTCA,-0.0488
10,CCAACAGG,-0.269
11,CTATATAC,0.0474
12,AAAGGGGG,-0.176
13,TTGACAAA,-0.095
14,ACAATCGT,-0.187
15,GGTACTAA,0.171
16,GTGGCTAA,-0.152
17,ACGATCCC,0.0551
18,CCAAGCGG,0.0508
19,ATAACACG,0.0178
20,ATTTCCCA,-0.131
21,AGGCATCC,-0.128
22,GGAAGTTA,0.218
23,AATCAAAC,-0.11
24,CCCCCCGG,0.247
25,GGTTCATA,-0.0158

row,Sequence,PBM E-score
1,CGATCTAC,0.034
2,GTTGCTAA,0.00635
3,CTGTGAAG,-0.209
4,CCTGTTAC,-0.146
5,CGAACAGC,-0.0481
6,CCCTGTGA,-0.278
7,ATTGCAAG,-0.214
8,AGATCACA,-0.0521
9,AAGGCTAT,-0.0861
10,AGGCAGAA,-0.0485
11,CATGTGGC,-0.0312
12,CCCGAAAG,0.298
13,AGAGATCC,0.0435
14,CTAGCCGC,0.0113
15,CCACTTAC,0.103
16,GGCGCGCC,0.208
17,ACTACAAT,-0.0347
18,CCTGGGGC,-0.0213
19,AACTGCTC,0.0268
